Assay results from publication PMC6274018, “Design, Synthesis and Biological Evaluation of Novel Benzothiazole Derivatives as Selective PI3Kβ Inhibitors” (Molecules, 2016).

Assays:
Type in all cases: cell-based
MES-SA cells = assay: Anti-proliferative MTS assay, MES-SA; settings: Homo sapiens, 72 h exposure
Description: (§1) All new synthesized compounds in this paper were screened for their anti-proliferative activity by MTS assay. A549, MCF7, SKOV3, AGS, MES-SA, HepG2, SW-620, PC-3, DU145 and MRC5 cells in this paper were all purchased from American Type Culture Collection (ATCC, Manassas, VA, USA), and were seeded into 96-well plates and cultured for 24 h. Subsequently, these cells were exposed to serial concentrations of compound for 72 h. Cells were then washed with PBS and fixed with CellTiter 96® (Promega) aqueous one solution reagent at 37°C for 3 h. Finally, record the absorbance at 490 nm using a 96-well plate reader. […] All of the compounds were tested two times in each of the cell lines and the results expressed as inhibition rates or IC50 (inhibitory concentration 50%) were the averages of two determinations.

SKOV3 cells = assay: Anti-proliferative MTS assay, SKOV3; settings: Homo sapiens, SK-OV-3, 72 h exposure
Description: as §1

AGS cells = assay: Anti-proliferative MTS assay, AGS; settings: Homo sapiens, 72 h exposure
Description: as §1

MCF7 cells = assay: Anti-proliferative MTS assay, MCF7; settings: Homo sapiens, 72 h exposure
Description: as §1

SW-620 cells = assay: Anti-proliferative MTS assay, SW-620; settings: Homo sapiens, 72 h exposure
Description: as §1

A549 cells = assay: Anti-proliferative MTS assay, A549; settings: Homo sapiens, 72 h exposure
Description: as §1

HepG2 cells = assay: Anti-proliferative MTS assay, HepG2; settings: Homo sapiens, 72 h exposure
Description: as §1

MRC5 cells = assay: Anti-proliferative MTS assay, MRC5; settings: human normal cell, 72 h exposure
Description: as §1

DU145 cells = assay: Anti-proliferative MTS assay, DU145; settings: Homo sapiens, DU-145, prostate tumor cells, 72 h exposure
Description: as §1

PC-3 cells = assay: Anti-proliferative MTS assay, PC-3; settings: Homo sapiens, prostate tumor cells, 72 h exposure
Description: as §1

| Structure (SMILES) | IC50 (SKOV3 cells) [µM] | IC50 (AGS cells) [µM] | IC50 (MCF7 cells) [µM] | IC50 (SW-620 cells) [µM] | IC50 (A549 cells) [µM] | IC50 (HepG2 cells) [µM] | IC50 (DU145 cells) [µM] | IC50 (PC-3 cells) [µM] | IC50 (MES-SA cells) [µM] | IC50 (MRC5 cells) [µM] |
| --- | --- | --- | --- | --- | --- | --- | --- | --- | --- | --- |
| O=C(Nc1ccc(-c2cc(N3CCOCC3)c3nc(N4CCOCC4)sc3c2)cc1)Nc1cccnc1 [Compound 11, 1-(4-(2,4-Dimorpholinobenzo[d]thiazol-6-yl)phenyl)-3-(pyridin-3-yl)urea] | 2.64 | 0.4 | – | 1.17 | – | 3.43 | 0.62 | 0.35 | 0.55 | – |
| O=C(Nc1ccc(-c2cc(N3CCOCC3)c3nc(N4CCOCC4)sc3c2)cc1)NC1CC1 [Compound 5, 1-Cyclopropyl-3-(4-(2,4-dimorpholinobenzo[d]thiazol-6-yl)phenyl)urea] | 26.9 | 64.9 | 40.8 | 30.8 | 14.4 | > 100 | > 100 | > 100 | 33.1 | 38.5 |
| O=C(NCc1ccccc1)Nc1ccc(-c2cc(N3CCOCC3)c3nc(N4CCOCC4)sc3c2)cc1 [Compound 6, 1-Benzyl-3-(4-(2,4-dimorpholinobenzo[d]thiazol-6-yl)phenyl)urea] | 8.85 | 47 | 19.9 | 41.2 | 5.67 | > 100 | > 100 | > 100 | 24.9 | 16.5 |
| CCNC(=O)Nc1ccc(-c2cc(N3CCOCC3)c3nc(N4CCOCC4)sc3c2)cc1 [Compound 1, 1-(4-(2,4-Dimorpholinobenzo[d]thiazol-6-yl)phenyl)-3-ethylurea] | 21.2 | 9.69 | 4.06 | 8.31 | > 100 | > 100 | 9.5 | 15.3 | 12.3 | 6.06 |

Continued by falling IC50 (SKOV3 cells), values first:

| IC50 (SKOV3 cells) [µM] | IC50 (AGS cells) [µM] | IC50 (MCF7 cells) [µM] | IC50 (SW-620 cells) [µM] | IC50 (A549 cells) [µM] | IC50 (HepG2 cells) [µM] | IC50 (DU145 cells) [µM] | IC50 (PC-3 cells) [µM] | Structure (SMILES) | IC50 (MES-SA cells) [µM] | IC50 (MRC5 cells) [µM] |
| --- | --- | --- | --- | --- | --- | --- | --- | --- | --- | --- |
| 5.59 | 12.2 | 6.58 | > 100 | 14.8 | > 100 | > 100 | 33.5 | CCNC(=O)Nc1ccc(-c2cc(N3CCOCC3)c3nc(N4CCCCC4)sc3c2)cc1 [Compound 4, 1-Ethyl-3-(4-(4-morpholino-2-(piperidin-1-yl)benzo[d]thiazol-6-yl)phenyl)urea] | 21.9 | 83.5 |
| 3.76 | 15.3 | 6.53 | 10.9 | 2.27 | 6.2 | 71.7 | 25.2 | CCNC(=O)Nc1ccc(-c2cc(N3CCOCC3)c3nc(N4CCN(C(C)C)CC4)sc3c2)cc1 [Compound 3, 1-Ethyl-3-(4-(2-(4-isopropylpiperazin-1-yl)-4-morpholinobenzo[d]thiazol-6-yl)phenyl)urea] | 3.92 | 3.53 |
| 0.3 | 3.62 | 0.89 | – | 6.91 | 1.1 | 1.41 | 5.92 | CS(=O)(=O)N1CCN(Cc2cc3nc(-c4cccc5[nH]ncc45)nc(N4CCOCC4)c3s2)CC1 [GDC-0941, 2-(1H-indazol-4-yl)-6-(4-methanesulfonyl-piperazin-1-ylmethyl)-4-morpholin-4-yl-thieno[3,2-d]pyrimidine, reference compound] | 0.23 | 20.7 |
